Test results as given in the RNAGym collection of RNA variant scans (doi:10.7554/elife.90254).
Read counts are not given, so values of variants with three or more changes are uncertain.

B1: LINE1-mini (parent)
chain: GGCAGAGCUCAACACAGCGUGGCAAAGUGGCUGUGGCUAGACUGCC

Variants of: B1
Experiment: self-cleavage, relative activity (ratio to wild type); higher = more cleavage; in vitro, sequencing; the parent is a self-cleaving ribozyme

Row | Variant | self-cleavage
1 | GGCAGAGCUCAAAACAGCGUGGCAAAGUAGCUGAGGCUUGACUGCC [C13A G29A U34A A39U] | 0.09
2 | GGCAGACCUCAACACAGCCUGGUAAAGAGGCUGUGGCUAGACUGCC [G7C G19C C23U U28A] | 0.15
3 | GGCAGAGUUCAACAUAGCGUGCCAAAGUGGCUGUAGCUAUACUGCC [C8U C15U G22C G35A G40U] | 0.03
4 | GGCAGAGCUCAACGCCGCGUGGCAAAGUGGCUGUGGCUAUACUGCC [A14G A16C G40U] | 0.02
5 | GGCAGAGCUAAACACAGCGUGGUUAAGUGGCUCUGGCUAGACUGCC [C10A C23U A24U G33C] | 0.01
6 | GGCAGAGCUCUACACGGCGUGGCAAAGCGGCUGUGGCUAGACAGCC [A11U A16G U28C U43A] | 0
7 | GGCUGCGCGCAACACAGCGUGGCAAAGUGGCUGUGGCUGGACUGCC [A4U A6C U9G A39G] | 0.04
8 | GGCGGAGCUCAACGCAGCCUGGCAAAGUGGCUGUGGCUAGACUGCC [A4G A14G G19C] | 0.03
9 | GGCGGAGCUCAACAUAGCGUGGCAAAGUGGCUGUGGCUAGGCUGCC [A4G C15U A41G] | 0.04
10 | GGCAGAUCUCAACACAGCAGGGCAAAGGGGCAGUGGCUAGACUGCC [G7U G19A U20G U28G U32A] | 0.01
11 | GCCAGAGCUUAACACAGCGUGGCAAAGUGGCUGUGGCUAGACUGCG [G2C C10U C46G] | 0.07
12 | GGCAGAGCUCAACACUGCGUGUCAUAGUGGCUGUGGCUAGUCGUCU [A16U G22U A25U A41U U43G G44U C46U] | 0.11
13 | GGCAAAGCUCAACACAGCGUCGUAAAGUGGGUGUGGCUAGACUGCC [G5A G21C C23U C31G] | 0.11
14 | GGCAGAGCUCAAGACAGAGUGACAAGCUGGCUGUGGCUAGACUGCC [C13G C18A G22A A26G G27C] | 0.05
15 | GGCAGAGCUCACCACGGCGUUGCAAAGGGGCUGUGGCUAGACUGCC [A12C A16G G21U U28G] | 0.01
16 | GGCGGAGCUCAAGACAGCGUGGCAAAGUGGCUGUGGGUAGACUGCC [A4G C13G C37G] | 0.16
17 | GGCAGACCUGUACACAGCGUGGCAAAGUGGCUGUGGCUAGACUGCG [G7C C10G A11U C46G] | 0.01
18 | GGCAGAGCUCAACAGAGCGUGGCAAAGUAGCUGUGGCUAGACUGUC [C15G G29A C45U] | 0.14
19 | UCCAGAGCUCAACACAGCGUGCCAAAGUGGCUGCGGCUAGACUGCC [G1U G2C G22C U34C] | 0.04

Row | Variant | self-cleavage
20 | GGCAGAGCUAAAAACAGCGUGGCAAAGUGGCUGCGGCUAGACUGCC [C10A C13A U34C] | 0.02
21 | GGCAGAGCUAAACACAUCUUGGCAAAGUGGCUGUGGUUAGACUGCC [C10A G17U G19U C37U] | 0
22 | GGCAGAGCUCAACACAGAGUGCAAAAGUGGCUGUGGCUAGAUUGCC [C18A G22C C23A C42U] | 0.25
23 | GGCAGAGCUCAAAACAGCGUGGCAAAGUGGCAGUGGCUAGACUAUC [C13A U32A G44A C45U] | 0.03
24 | GGCAGAGAUCACCACAGCGUGGCAAAGUGGCAAUGGCUAGACUGCC [C8A A12C U32A G33A] | 0.03
25 | UGUAGAGCUCAACACAGCGUGGUGAAGUGGCUAUGUCUAGACUGAC [G1U C3U C23U A24G G33A G36U C45A] | 0.02
26 | GGCAGAGCUCAACACUGCGUCGCGAAGUGGCUGUGGCUAGACUGCC [A16U G21C A24G] | 0.04
27 | GGCAGAGCUCAACACAGUGUGGCAAAGUGGCUGUGCCUAUACUGCC [C18U G36C G40U] | 0.03
28 | GGCAUAUCUCAAAACAGCGUGGCAAAGUGGCUGAGGCUAGACUGCC [G5U G7U C13A U34A] | 0.23
29 | GGCAGAGCUCCACACAGCGUGUCAAUGAGGCUGUGGCUAGACUGCC [A11C G22U A26U U28A] | 0.01
30 | GGCUGUGCUCAACACAGCGUGGCAAAGUGGCUGUCGCUAGACUGCC [A4U A6U G35C] | 0.03
31 | GGCAGAGCUUAACACCGCGUGGCAAAGUGGCUGUGGCUAGCCUGUC [C10U A16C A41C C45U] | 0.03
32 | GGCAGAGCUAAACACAGCGCGGCAAAGUGGCUGUGGCUACACUGCG [C10A U20C G40C C46G] | 0
33 | GGCAGAGCUCAGCACAGCGUGGCAAAGUGGCUGUGGCUAGCCGGAU [A12G A41C U43G C45A C46U] | 0
34 | GGCAGAGCUCGACAAAGCGUGGGAAAGUGGCUGUGGCUAGACUGCC [A11G C15A C23G] | 0.04
35 | GGCAGAGCUCAACACAGCGUGGCAAAAUUGCUGGGGCUAGACUGGC [G27A G29U U34G C45G] | 0.07
36 | GGCAGUGAUCAACACAGCGUCGCAAAGUGGCUGUCCCUUGACUGCC [A6U C8A G21C G35C G36C A39U] | 0.11
37 | GGCGGCGCUCAACACAGCGUGGCAAAGUCGCUGUGCCUAGACUGAA [A4G A6C G29C G36C C45A C46A] | 0.31
38 | GGCAGAGCUCAACACCGCGUGGCAAAGUGGCUAUGGCUCGAGUGCC [A16C G33A A39C C42G] | 0.03

Row | Variant | self-cleavage
39 | GACAGAGCUCAACACAGCGUGGCAAAUCGGCUGUGGCUAGACAGCC [G2A G27U U28C U43A] | 0.22
40 | GGCAAAGCUCAAGACAGCGUGGCAAAGUAGCUGUGGCUAGACUGCC [G5A C13G G29A] | 0.23
41 | GGCAGAGCUGAACACAGCGUGGCAAACUGACUGUGCCUAGACUGCC [C10G G27C G30A G36C] | 0
42 | GGCAGAGCUCAACACGGCGUGGCAAAGUGGCUGUUGCUUGAAUGCC [A16G G35U A39U C42A] | 0
43 | GGCAGAACUCAACACAGCGUGGCAAAGUGGCUGUGACUAGAUUGCC [G7A G36A C42U] | 0.24
44 | GCCAGAGCUCAACAAAGCGUGGCAAAGUGGCUGUGGGUAGACUGCC [G2C C15A C37G] | 0.04
45 | GGCCAUGCCCAACACAGCGUGACAAAGUGGCUGUGGCUAGACUGCC [A4C G5A A6U U9C G22A] | 0.06
46 | GGCAGAGCCCAAGAAAGCGUGGCAAAGUGGCUGUGGUUAGACUUCU [U9C C13G C15A C37U G44U C46U] | 0
47 | GGCAGAGCUCUACACAGCGUUGCCAAGUGGCUGAGGCUAGACUGCC [A11U G21U A24C U34A] | 0.03
48 | GACAGAGCUCAACAUAGCGUGGCAAAGUGGCUGCGGCUAGACUGCC [G2A C15U U34C] | 0.71
49 | GGCAGAGCUCAAUACAGCAUGGCAAAGUGGAUGUGGCUAGACUGCC [C13U G19A C31A] | 0.04
50 | GGCAGAGCUCAACACAGCGUGGCAAAGUGGCUGUGUCUACACCGCC [G36U G40C U43C] | 0.17
51 | GUCAGAGCUCAACACUGCGUGGCAAUGAGGCAGUGGCUAGACUCCC [G2U A16U A26U U28A U32A G44C] | 0.07
52 | AGCAGCGCUCAACACAGCGUGGCAAAGUGGCAGUGGCUAUACUGCC [G1A A6C U32A G40U] | 0.08
53 | GGCAGAGCUCAGCACAGCAUGGCAAAGUGGCGGUGGCUAGACUGCC [A12G G19A U32G] | 0.04
54 | GUCAGAGCACAACAGAGCGUGGCAAAGUGGCUGUGGCUAGACUGCC [G2U U9A C15G] | 0.01
55 | GGCAGAGCUCGACGGAGCGUGGCAAAGUGGCUGUGGCUAGACUGCC [A11G A14G C15G] | 0.02
56 | GUCAUAGCUCUACACAGCGUGGCAAAGUGGCUGUGGCUAGACUGCC [G2U G5U A11U] | 0.05
